The record followed here is the BET-seq Pho4 binding data (Le et al. 2018).

The other results are listed elsewhere or left out. The energies were worked out here from pooled read counts, against the library average; single values are noisy.

This assay has as its target T1, Pho4 (S. cerevisiae) (UniProt P07270).
T1 sequence: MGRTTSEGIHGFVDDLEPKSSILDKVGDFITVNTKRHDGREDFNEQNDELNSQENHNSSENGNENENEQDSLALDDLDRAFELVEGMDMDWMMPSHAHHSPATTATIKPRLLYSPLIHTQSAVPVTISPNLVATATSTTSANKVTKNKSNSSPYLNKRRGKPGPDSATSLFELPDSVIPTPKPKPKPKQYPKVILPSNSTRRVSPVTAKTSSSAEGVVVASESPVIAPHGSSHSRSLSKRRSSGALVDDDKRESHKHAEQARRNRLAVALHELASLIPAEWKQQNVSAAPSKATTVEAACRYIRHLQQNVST
Briefly: relative binding free energy (BET-seq); higher = weaker binding. The settings on record: reference: library average.
TTTCGCACGTGATTCG: the “relative binding free energy” value was found to be 0.15 kcal/mol.

For the sequence AGTTGCACGTGGCTAG, the “relative binding free energy” value was -0.06 kcal/mol.

GCATTCACGTGTGCGT: the “relative binding free energy” value is 0.28 kcal/mol.

For TTTGACACGTGGAAGG, the “relative binding free energy” value came out at 0.04 kcal/mol.

For TGAGTCACGTGGCTCG, the “relative binding free energy” value came out at 0.07 kcal/mol.

In the case of GCTTACACGTGGGGTT, the “relative binding free energy” value was -0.05 kcal/mol.

Consider AGTTACACGTGATAAA, for which the “relative binding free energy” value was 0.28 kcal/mol.

In the case of GTAGGCACGTGTTTAA, the “relative binding free energy” value worked out at 0.06 kcal/mol.

For the sequence TACGACACGTGTTGGA, the “relative binding free energy” value came to 0.03 kcal/mol.

Turning to ATAGGCACGTGGTTTT, the “relative binding free energy” value was -0.23 kcal/mol.

As to AGTTTCACGTGGCATG, the “relative binding free energy” value was determined as 0.16 kcal/mol.

Consider TTGGGCACGTGGATAC, for which the “relative binding free energy” value is -0.17 kcal/mol.

AGTAACACGTGGTGAG: the “relative binding free energy” value is -0.13 kcal/mol.

Regarding TCTGGCACGTGCTTTT, the “relative binding free energy” value was -0.05 kcal/mol.

Consider TTGTCCACGTGTGATG, for which the “relative binding free energy” value was determined as 0.14 kcal/mol.

Turning to GAAGTCACGTGTGTCT, the “relative binding free energy” value is 0.3 kcal/mol.

Turning to TAGGTCACGTGCATGG, the “relative binding free energy” value was determined as 0.07 kcal/mol.

For GAGTGCACGTGGGCGG, the “relative binding free energy” value was -0.08 kcal/mol.

As to TTGATCACGTGTAAGA, the “relative binding free energy” value came out at 0.13 kcal/mol.

In the case of AGCGTCACGTGTGATG, the “relative binding free energy” value was -0.06 kcal/mol.

As to TAAATCACGTGAGGAG, the “relative binding free energy” value is 0.33 kcal/mol.

Regarding AGTCGCACGTGTCGGT, the “relative binding free energy” value worked out at 0.02 kcal/mol.

For the sequence TGATACACGTGCGTGG, the “relative binding free energy” value was -0.05 kcal/mol.

As for TAGGTCACGTGAATGG, the “relative binding free energy” value was 0.34 kcal/mol.

In the case of TGCCACACGTGGGTGT, the “relative binding free energy” value is -0.12 kcal/mol.

As to TTATACACGTGAGGAG, the “relative binding free energy” value was 0.15 kcal/mol.

As for ACGTACACGTGGTGTA, the “relative binding free energy” value is -0.02 kcal/mol.

Take GAGAGCACGTGTCGGG: the “relative binding free energy” value was -0.17 kcal/mol.

For the sequence TACGTCACGTGTATAG, the “relative binding free energy” value turned out to be 0.03 kcal/mol.

Regarding GGTATCACGTGAGTTA, the “relative binding free energy” value is 0.25 kcal/mol.

Consider GAGTCCACGTGGTTAG, for which the “relative binding free energy” value turned out to be 0.21 kcal/mol.

AGAGGCACGTGTCTTG: the “relative binding free energy” value worked out at 0.06 kcal/mol.

For the sequence GGGGTCACGTGCCTTT, the “relative binding free energy” value is 0.12 kcal/mol.

Take TGGTTCACGTGGTGAA: the “relative binding free energy” value was found to be 0.27 kcal/mol.

For TTAATCACGTGGATGT, the “relative binding free energy” value was found to be 0.13 kcal/mol.

With GTAGTCACGTGGCGTT, the “relative binding free energy” value worked out at 0.07 kcal/mol.

With GTTGGCACGTGTGCAG, the “relative binding free energy” value was -0.02 kcal/mol.

Turning to CAGATCACGTGGGGCT, the “relative binding free energy” value was 0.06 kcal/mol.

Consider GTGCGCACGTGATTGT, for which the “relative binding free energy” value stood at 0.07 kcal/mol.

As to GCGGGCACGTGGTAGG, the “relative binding free energy” value was -0.23 kcal/mol.

Take AGGTTCACGTGTTGCT: the “relative binding free energy” value came out at 0.13 kcal/mol.

As to TGTTACACGTGGAAGG, the “relative binding free energy” value is 0.25 kcal/mol.

As for GAGTGCACGTGGTTTC, the “relative binding free energy” value was -0.03 kcal/mol.

On to TGATACACGTGGTCGT, for which the “relative binding free energy” value was -0.06 kcal/mol.

For GGTGGCACGTGGTGTT, the “relative binding free energy” value was 0.02 kcal/mol.

Take TTGCCCACGTGTGTTG: the “relative binding free energy” value is -0.02 kcal/mol.

For AGAGTCACGTGTTTAG, the “relative binding free energy” value amounted to 0.19 kcal/mol.

Turning to GCGTGCACGTGATAGT, the “relative binding free energy” value amounted to 0.18 kcal/mol.

As to AGGGGCACGTGTTTGG, the “relative binding free energy” value was -0.11 kcal/mol.

Turning to GTGTTCACGTGAAGGA, the “relative binding free energy” value was found to be 0.36 kcal/mol.

Consider GATGTCACGTGTTTAT, for which the “relative binding free energy” value was found to be 0.12 kcal/mol.

Regarding CTGGACACGTGGAGTG, the “relative binding free energy” value is -0.02 kcal/mol.

Turning to TTGTGCACGTGTGCGT, the “relative binding free energy” value is -0.01 kcal/mol.

Turning to TTATTCACGTGATATG, the “relative binding free energy” value is 0.24 kcal/mol.

Turning to GGGATCACGTGAAGGT, the “relative binding free energy” value stood at 0.31 kcal/mol.

As for TTCAGCACGTGGGGGA, the “relative binding free energy” value is -0.2 kcal/mol.

In the case of ATAGACACGTGGGTGT, the “relative binding free energy” value was -0.06 kcal/mol.

Regarding TATTCCACGTGTAAGG, the “relative binding free energy” value was found to be 0.2 kcal/mol.

Consider GTTCTCACGTGTAGGA, for which the “relative binding free energy” value worked out at 0.37 kcal/mol.

Regarding CAGTGCACGTGTTGGA, the “relative binding free energy” value was 0.01 kcal/mol.

For GCGTTCACGTGAGAGT, the “relative binding free energy” value was determined as 0.3 kcal/mol.

In the case of GGGTGCACGTGACGTA, the “relative binding free energy” value amounted to 0.17 kcal/mol.

AAGAACACGTGTTTGT: the “relative binding free energy” value worked out at 0.01 kcal/mol.

In the case of GTAGTCACGTGGGAGT, the “relative binding free energy” value was 0.1 kcal/mol.

Consider GTTTTCACGTGCGATA, for which the “relative binding free energy” value came to 0.3 kcal/mol.

Consider TTGAGCACGTGTGGGT, for which the “relative binding free energy” value is -0.02 kcal/mol.

With TTTTACACGTGTATTA, the “relative binding free energy” value amounted to 0.08 kcal/mol.

Turning to TGTCGCACGTGTCGGG, the “relative binding free energy” value was -0.02 kcal/mol.

As to GGGTTCACGTGATTTT, the “relative binding free energy” value is 0.48 kcal/mol.

As to TGGATCACGTGGCCGG, the “relative binding free energy” value is 0 kcal/mol.

As to CAGGTCACGTGTATTG, the “relative binding free energy” value amounted to 0.14 kcal/mol.

For TTGCACACGTGTTGAG, the “relative binding free energy” value worked out at 0.1 kcal/mol.

Consider GGAAGCACGTGGCAGT, for which the “relative binding free energy” value was -0.15 kcal/mol.
